Measurements taken from the RNAGym collection of RNA variant scans (doi:10.7554/elife.90254).
Read counts are not given, so values of variants with three or more changes are uncertain.

B1: LINE1-full (parent)
chain: UACGUAGGUGGUUUUCCCCUGAUAGUGCUAAGGGGGCCUGGAAGUUUGGACUGGGCAGAGCUCAACACAGCGUGGCAAAGUGGCUGUGGCUAGACUGCCUCUCUGGAUUCCUCGUCACUCAGCAGGGCAUCUCUGAGAGAAAUGCC

Variants of: B1
Assay: self-cleavage, relative activity (ratio to wild type); higher = more cleavage; in vitro, sequencing; the parent is a self-cleaving ribozyme

| Variant | self-cleavage |
| --- | --- |
| U46C A121G G122U | 2.02 |
| U46C G88U U143C | 0.02 |
| U47C U52A U85C | 0.37 |
| U46C A136G A140G | 1.88 |
| U47A A69U U104C | 0.09 |
| U47A A69U U104A | 0.02 |
| U47C A77G U130A | 1.84 |
| U47A U62C A77U | 0.06 |
| U47A U104A A136G | 0.68 |
| U47A U112A U130C | 1.04 |
| U47A A69U U73A C84U A94G U134C | 0.05 |
| U46C U91A A107G U143C | 0.92 |
| U47A A50G U115A U134A A141G | 0.29 |
| U46C G48A U81C | 0.98 |
| G48A A69G U91C | 0.15 |
| U47A A59G U115A G144A | 0.07 |
| U46C U134C U143A | 1.2 |
| U47C A124U U134C | 1.28 |
| U47C U96A A107C | 0.21 |
| U47A U100C A117G U143C | 0.91 |
| U46C A67G U119A | 0.56 |
| U46C U87C A129U A142G | 0 |
| G49A U130C A141G | 0.69 |
| U45G G58U U112A | 0.03 |

| Variant | self-cleavage |
| --- | --- |
| U47A U62C U81A A141G | 0.06 |
| U46C A69G U115C C128A A136G A138G | 1.47 |
| U46C A78G U87C | 0 |
| U46C A57G A69G U108C | 1.15 |
| G48U A69G C120A | 0.69 |
| G49A A67G A69U | 0 |
| U47G A59G U87C U96A | 0 |
| U47C A50U A138G | 0.85 |
| G48U U52G G55A A69U U100C | 0.1 |
| U46A U87C U130A | 0.19 |
| U47C U96C U109A U119C A121U | 0 |
| U46A A64U U81A A138G U143C | 0.56 |
| U47G A69G A129G | 0.74 |
| U46A U47A U91C C101U | 0.66 |
| U47A U108C A117G | 0.48 |
| U47A U62A C101U | 0.01 |
| U46C A69G A94G U104A C131A | 0 |
| U46C U108C U115A A140U | 2.21 |
| G49A A57G A69C A138G | 0.02 |
| U47A A124G A136U | 1.28 |
| U46C G89U U132C | 0.05 |
| U47C U62C U87A | 0.06 |
| U46A A77G U91C A92G U112A A141G | 1.84 |
| U46C A79G A129G U132C | 0 |

| Variant | self-cleavage |
| --- | --- |
| U46C U52A U73C U132C A142U | 2.76 |
| A50G A57U C66U A129U | 0.05 |
| U47G A94G A136G | 0.21 |
| U47A U73C A107G | 2.36 |
| U46C G106U U130A | 1.05 |
| U47C A59G A141G | 0.29 |
| U46C A78G A79C C95U A140U | 1.42 |
| U47C A67G A138G | 1.53 |
| U47A A50U A57U C101A A141G | 0.09 |
| U47A A50G U81C A121U | 1.6 |
| U46A A59G A65U U134C | 0.13 |
| U46A U109C A136U | 1.8 |
| U45C U112C A141U | 1.41 |
| U47A A121G A136G | 2.02 |
| U47C U85A U115C | 0.13 |
| G49A A78G U85C | 0.03 |
| U46C U62C A67G A136U A142G U143A | 0.13 |
| U45C U115C A138U | 2.77 |
| U47A U100C A124U | 2.01 |
| U47C U115C U119C | 0 |
| U46A G89U A140G | 0.01 |
| U46A C61U U132C A136G A141G | 0.06 |
| G49A U87C C111U | 0.09 |
| A50C U100G U130C | 0 |

| Variant | self-cleavage |
| --- | --- |
| U47C U62C C71U A140G | 0.02 |
| U46C A79C U81C | 1.67 |
| U46C A69C A138G | 0 |
| U47C A69G U73C | 0 |
| U46C G53U A77G A78G U81C U134C | 0.84 |
| G48A A64G G137A | 0.16 |
| U45G A78G A92U C120U | 0.66 |
| U47A A94G U96C U130C A140G | 0.24 |
| U45G A77U U85G U112C | 0.06 |
| U47C A59G U108C | 0 |
| U46C A67G A69C U132C | 0 |
| U46C G97U U100C U119C U132C | 0.06 |
| U47C U52C G127A | 1.64 |
| U47C U112C A121U | 2.07 |
| A50G A57U C118U | 0.09 |
| U46A U62C U91A A92G | 0.03 |
| U47C A64G U91C | 0 |
| U46C U52A A79G U132C | 0.71 |
| U46A U62A U81C C113A | 0.03 |
| U46C A117U U132C A141G | 0.77 |
| G49U C56U A57C | 0.03 |
| U47A U52G U73A U85A | 0.09 |
| U46C U73C U115A A124G | 2.3 |
| U46A A65G A121U A140G | 0.04 |

| Variant | self-cleavage |
| --- | --- |
| U46A U96A A141G | 0.09 |
| U47G A64G A78G | 0.11 |
| U46A U104G A124G | 0.57 |
| U47G U91A A140G | 0.48 |
| U46C A94G A117U A121U | 0.44 |
| U47C A57U G114A | 0.19 |
| U47A A94G A142C | 0.08 |
| U47A A92G A124G | 0.22 |
| U47C U87C U130C | 0 |
| U46A A69G U130C | 1.05 |
| U46C A94G A117C U130C A136G A142G | 0 |
| U46A U81A A117G | 1.74 |
| A50G A57U G80C | 0.18 |
| G48U U96A U100C | 0.07 |
| U47C U62C A129U | 0.04 |
| U46C U115A G137A | 1.35 |
| G49A U100C A141G | 1.24 |
| U46C A64G A124U | 0.36 |
| U47C G82A U119C A140G | 1.95 |
| U46C A78G A142C | 1.97 |
| U46C U102C U134A | 1.93 |
| U47A U96A U108C | 0.01 |
| U46C A57U C120U | 0.22 |
| U46A A57U A78G | 0.08 |

| Variant | self-cleavage |
| --- | --- |
| U47C G75U U85A U108C A142U | 0.15 |
| G48A G89C U130C A138U | 0.01 |
| U45G A78G U100A A107G C133A A141G | 1.02 |
| U47C A138U A141G | 1.28 |
| U46C A78G C120U | 2.09 |
| G49A A69U U119C | 0.06 |
| U46A A129G U143C | 1.91 |
| U45G A77U U96C C118U | 0.1 |
| G48U G60U U108C A141G | 0.04 |
| U46A G72A U73A G139A | 1.99 |
| U45G U85G U109C U112A A141G | 0.23 |
| U47A A78G U104C U109A A129U | 1.31 |
| U47A U52C U112C | 1.09 |
| U46A U52C A78G U85A U132A | 0.04 |
| U46A A67C G83A U102C A107G | 0.02 |
| U46A A136C A141G | 1.48 |
| U47C U85C A124U | 0.81 |
| U46C A92G G93A U119C G144A | 0.08 |
| U46A U47C U102C U134C | 0.63 |
| U47C C51U A69U A79G A136U | 0 |
| U46A U91A U112A | 0.42 |
| U46A U81A U130C | 2.14 |
| U47C U81A A92G U130C | 0 |
| U46C G49A G88A A121G | 0.04 |

| Variant | self-cleavage |
| --- | --- |
| U47A A69C A136G | 0.06 |
| U46C U85A U115A C133U A142G | 0.22 |
| U47A A65U A78U U81A U109A A140G | 0.12 |
| U46C U52C A57U C63A C113U | 0.02 |
| U45C U102C C120A | 2.24 |
| U46A G75U G106A U119A G125A A136G U143C | 0.76 |
| G48U A92G U102A A138G | 0.06 |
| U47A A64G C76U U115C A124G | 0.2 |
| U47C A94C A142G | 0.11 |
| U47A G70A A79G G86A U100C | 0.03 |
| G48U A59G A107G | 0.33 |
| G49A A69G C84U U132A | 0.03 |
| U46A U91A U96A A142G | 0.07 |
| U46C A78G U130A G137U | 1.53 |
| U46C A64G C71U U87G U115C A136G U143C | 0.11 |
| U46C G49A U104C | 1.45 |
| U47A U62A A64G G82A C113A A141G | 0.07 |
| U46C A67G G89A | 0.07 |
| U47A A77U U143A | 1.32 |
| G48A U108C C116U A140G | 1.84 |
| U45G A59U A77U | 0.82 |
| U46A A59G A69G G106A | 0 |
| U47C C99U A141G | 1.21 |
